From patent publication EP0622394A1, “Reversible modification of sulfur-containing molecules with polyalkylene glycol derivatives and their use” (S.A. LABORATOIRES S.M.B., priority 1993, dated 1994)

Test: Amidase activity against BAPNA of chromatographic pools, with or without cysteine (Example 8)
Type: biochemical
Procedure: Amidase activity was measured using N-L-Benzoyl-DL-Arginine-p-nitro-anilide (BAPNA) as the substrate. • a. ASSAY METHOD N° 1 : SMITH ASSAY : The sample is added to "Buffer 1", aqueous sodium phosphate buffer (100 mM), pH 6.0 containing EDTA (1 mM) and Cysteine hydrochloride monohydrate (10 mM), to a final volume of 1.0 ml. The enzyme (where present in the sample) is allowed to activate for 5 minutes at 37°C before the reaction is started by the addition of 4 ml of BAPNA (1.25 mM) substrate solution preheated to 37°C. Substrate solution is prepared by dissolving 300 mg BAPNA in warm dimethylsulfoxide, adding the solution slowly to 450 ml Buffer 1 preheated to 37°C and the making up to 500 ml with further Buffer 1. […] Released 4-nitroaniline is determined by measurement of ΔA₄₁₀. […] Released 4-nitroaniline is determined by measurement of ΔA₄₁₀. […] ASSAY METHODS N° 3 : The sample to be analyzed (x ml) is preincubated at 40°C for 10 minutes with (1.8-x) ml of the activation buffer which contains phosphate, citrate and borate 100 mM each in addition to 25 mM L-Cysteine and 15 mM EDTA (pH 6.8). […] The release of 4-nitroaniline is determined spectrophotometrically using ε 410 = 8800 M⁻¹.cm⁻¹, x being chosen so that ΔA₄₁₀ after 15 minutes never exceeded 0.80. […] The specific activity is expressed as the number of units per mg of protein. […]

B1: pool I: first pool of Figure 6A: chymopapain species with covalently linked PEG (conjugate, UniProt P14080 135-352, looked up)
Chymopapain: YPQSIDWRAKGAVTPVKNQGACGSCWAFSTIATVEGINKIVTGNLLELSEQELVDCDKHSYGCKGGYQTTSLQYVANNGVHTSKVYPYQAKQYKCRATDKPGPKVKITGYKRVPSNCETSFLGALANQPLSVLVEAGGKPFQLYKSGVFDGPCGTKLDHAVTAVGYGTSDGKNYIIIKNSWGPNWGEKGYMRLKRQSGNSQGTCGVYKSSYYPFKGFA
modifications: PEG
Cysteine omitted
  activity against BAPNA: inactive
Cysteine present
  activity against BAPNA: active
